This is one part of the list. Sequences were assembled here from the parent chain. Values near 0.05 are background.
B1: TEV protease; numbered along this chain (parent)
chain: MGESLFKGPRDYNPISSSICHLTNESDGHTTSLYGIGFGPFIITNKHLFRRNNGTLVVQSLHGVFKVKDTTTLQQHLVDGRDMIIIRMPKDFPPFPQKLKFREPQREERICLVTTNFQTKSMSSMVSDTSCTFPSGDGIFWKHWIQTKDGQCGSPLVSTRDGFIVGIHSASNFTNTNNYFTSVPKNFMELLTNQEAQQWVSGWRLNADSVLWGGHKVFMVKPEEPFQPVKEATQL

Variants of: B1
Assay: raw area under fraction-flipped curve 0-4 h after induction (AUC4h, not background-subtracted), DNA-recorder readout of cleavage of the substrate (dimensionless); higher = more cleavage of the substrate by the protease variant
Conditions: temperature: 34 °C; time window: 0-4 h after rhamnose induction
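Further: Bxb1 expression induced with 0.2% (w/v) L-rhamnose at OD600 near 0.5, cultures sampled hourly, flipped fraction per protease–substrate barcode pair counted by paired-end Illumina sequencing.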

Variant: MGESLFKGPRDYNPISSSICHLTNESDGHTTSLYGIGFGPFIITNKHLFRRNNGTLVVQSLHGVFKVKDTTTLQQHLVDGRDMIIIRMPKDFPPFPQKLKFREPQREERICLVTTNFQTKSMSSMGSDTSCTFPSGDGIFWKHWIQTKDGQCGSPLVSTRDGFIVGIHSASNFTNTNNYFTSVPKNFMELLTNQEAQQWVSGWRLNADSVLWGGHKVFMVKPEEPFQPVKEATQL [V126G]
- area with substrate ENDYFQS: 0.0509
- area with substrate ENEYFQS: 0.0538
- area with substrate ENMYFQS: 0.0591
- area with substrate ENNYFQS: 0.0632
- area with substrate ENRYFQS: 0.061
- area with substrate ENSYFQS: 0.0682
- area with substrate ENTYFQS: 0.0686
- area with substrate ENVYFQS: 0.0893

Variant: MGESLFKGPRDYNPISSSICHLTNESDGHTTSLYGIGFGPFIITNKHLFRRNNGTLVVQSLHGVFKVKDTTTLQQHLVDGRDMIIIRMPKDFPPFPQKLKFREPQREERICLVTTNFQTKSMSSMVSDTSCTFPSGDGIFWKHWIQTKDGQCGSPLVSTRDGFIVGIHSASNFTNTNNYFTSVPKNFMELLTNQEAQQWVSGWRLNADSVLWGGHKVFMVKPEEPFQNVKEATQL [P228N]
- area with substrate ENCYFQS: 0.0683
- area with substrate ENDYFQS: 0.0598
- area with substrate ENEYFQS: 0.0573
- area with substrate ENFYFQS: 0.065
- area with substrate ENGYFQS: 0.0602
- area with substrate ENHYFQS: 0.0576
- area with substrate ENIYFQS: 0.109
- area with substrate ENNYFQS: 0.0615
- area with substrate ENQYFQS: 0.0516
- area with substrate ENRYFQS: 0.0583
- area with substrate ENSYFQS: 0.0778
- area with substrate ENVYFQS: 0.0848
- area with substrate ENWYFQS: 0.0791
- area with substrate ENYYFQS: 0.0664

Variant: MGESLFKGPRDYNPISSSICHLTNESDGHTTSLYGIGFGPFIITNKHLFRRNNGTLVVQSLHGVFKVKDTTTLQQHLVDGRDMIIIRMPKDFPPFPQKLKFREPQREERIKLVTTNFQTKSMSSMVSDTSCTFPSGDGIFWKHWIQTKDGQCGSPLVSTRDGFIVGIHSASNFTNTNNYFTSVPKNFMELLTNQEAQQWVSGWRLNADSVLWGGHKVFMVKPEEPFQPVKEATQL [C111K]
- area with substrate ENDYFQS: 0.061
- area with substrate ENFYFQS: 0.0778
- area with substrate ENGYFQS: 0.0516
- area with substrate ENPYFQS: 0.0231
- area with substrate ENQYFQS: 0.0807
- area with substrate ENRYFQS: 0.0646
- area with substrate ENSYFQS: 0.078
- area with substrate ENTYFQS: 0.0609
- area with substrate ENVYFQS: 0.0698

Variant: MGESLFKGPRDYNPISSSICHLTNESDGHTTSLYGIGFGPFIITNKHLFRRNNGTLVVQSLHGVFKVKDTTTLQQHLVDGRDMIIIRMPKDFPPFPQKLKFREPQREPRICLVTTNFQTKSMSSMVSDTSCTFPSGDGIFWKHWIQTKDGQCGSPLVSTRDGFIVGIHSASNFTNTNNYFTSVPKNFMELLTNQEAQQWVSGWRLNADSVLWGGHKVFMVKPEEPFQPVKEATQL [E108P]
- area with substrate ENDYFQS: 0.0608
- area with substrate ENFYFQS: 0.0408
- area with substrate ENIYFQS: 0.0579
- area with substrate ENKYFQS: 0.0664
- area with substrate ENMYFQS: 0.0669
- area with substrate ENPYFQS: 0.0649
- area with substrate ENQYFQS: 0.0533
- area with substrate ENSYFQS: 0.0585
- area with substrate ENTYFQS: 0.0477

Variant: MGESLFKGPRDYNPISSSICHLTNESDGHTTSLYGIGFGPFDITNKHLFRRNNGTLVVQSLHGVFKVKDTTTLQQHLVDGRDMIIIRMPKDFPPFPQKLKFREPQREERICLVTTNFQTKSMSSMVSDTSCTFPSGDGIFWKHWIQTKDGQCGSPLVSTRDGFIVGIHSASNFTNTNNYFTSVPKNFMELLTNQEAQQWVSGWRLNADSVLWGGHKVFMVKPEEPFQPVKEATQL [I42D]
- area with substrate ENDYFQS: 0.0492
- area with substrate ENEYFQS: 0.0561
- area with substrate ENFYFQS: 0.0446
- area with substrate ENHYFQS: 0.0283
- area with substrate ENIYFQS: 0.0469
- area with substrate ENMYFQS: 0.0242
- area with substrate ENRYFQS: 0.0413
- area with substrate ENSYFQS: 0.0386
- area with substrate ENTYFQS: 0.0622
- area with substrate ENWYFQS: 0.0324
- area with substrate ENYYFQS: 0.0891

Variant: MGESLFKGPRDYNPISSSICHLTNESDGHTTSLYGIGFGPFIITNKHLFRRNNGTLVVQSLHGVFKVKDTTTLQQHLVDGRDMIIIRMPKCFPPFPQKLKFREPQREERICLVTTNFQTKSMSSMVSDTSCTFPSGDGIFWKHWIQTKDGQCGSPLVSTRDGFIVGIHSASNFTNTNNYFTSVPKNFMELLTNQEAQQWVSGWRLNADSVLWGGHKVFMVKPEEPFQPVKEATQL [D91C]
- area with substrate ENDYFQS: 0.0536
- area with substrate ENEYFQS: 0.0596
- area with substrate ENFYFQS: 0.0668
- area with substrate ENGYFQS: 0.0134
- area with substrate ENHYFQS: 0.0654
- area with substrate ENMYFQS: 0.0801
- area with substrate ENNYFQS: 0.046
- area with substrate ENQYFQS: 0.0539
- area with substrate ENSYFQS: 0.0611
- area with substrate ENVYFQS: 0.0819

Variant: MGESLFKGPRDYNPISSSICHLTNESDGHTTSLYGIGFGPFIITNKHLFRRNNGTLVVQSLHGVFKVKDTTTLQQHLVDGRDMIIIRMPKDFPPFPQKLKFREPQREERICLVTTNFQTKSMSSMVSDTSCFFPSGDGIFWKHWIQTKDGQCGSPLVSTRDGFIVGIHSASNFTNTNNYFTSVPKNFMELLTNQEAQQWVSGWRLNADSVLWGGHKVFMVKPEEPFQPVKEATQL [T132F]
- area with substrate ENDYFQS: 0.0576
- area with substrate ENEYFQS: 0.0573
- area with substrate ENFYFQS: 0.0602
- area with substrate ENGYFQS: 0.0602
- area with substrate ENHYFQS: 0.12
- area with substrate ENIYFQS: 0.0526
- area with substrate ENKYFQS: 0.0522
- area with substrate ENMYFQS: 0.0571
- area with substrate ENNYFQS: 0.0399
- area with substrate ENRYFQS: 0.051
- area with substrate ENSYFQS: 0.0521
- area with substrate ENTYFQS: 0.0567
- area with substrate ENVYFQS: 0.0606

Variant: MGESLFKGPRDYNPISSSICHLTNESDGHTTSLYGIGFGPFIITNKHLFRRNNGTLVVQSLHGVRKVKDTTTLQQHLVDGRDMIIIRMPKDFPPFPQKLKFREPQREERICLVTTNFQTKSMSSMVSDTSCTFPSGDGIFWKHWIQTKDGQCGSPLVSTRDGFIVGIHSASNFTNTNNYFTSVPKNFMELLTNQEAQQWVSGWRLNADSVLWGGHKVFMVKPEEPFQPVKEATQL [F65R]
- area with substrate ENDYFQS: 0.0591
- area with substrate ENEYFQS: 0.061
- area with substrate ENGYFQS: 0.0561
- area with substrate ENHYFQS: 0.0674
- area with substrate ENIYFQS: 0.0922
- area with substrate ENNYFQS: 0.0551
- area with substrate ENQYFQS: 0.0545
- area with substrate ENRYFQS: 0.048
- area with substrate ENSYFQS: 0.0608
- area with substrate ENTYFQS: 0.071
- area with substrate ENVYFQS: 0.072
- area with substrate ENWYFQS: 0.057
- area with substrate ENYYFQS: 0.0573

Variant: MGESLFKGPRDYNPISSSICHLTNESDGHTTSLYGIGFGPNIITNKHLFRRNNGTLVVQSLHGVFKVKDTTTLQQHLVDGRDMIIIRMPKDFPPFPQKLKFREPQREERICLVTTNFQTKSMSSMVSDTSCTFPSGDGIFWKHWIQTKDGQCGSPLVSTRDGFIVGIHSASNFTNTNNYFTSVPKNFMELLTNQEAQQWVSGWRLNADSVLWGGHKVFMVKPEEPFQPVKEATQL [F41N]
- area with substrate ENDYFQS: 0.0724
- area with substrate ENEYFQS: 0.0568
- area with substrate ENFYFQS: 0.0594
- area with substrate ENGYFQS: 0.0617
- area with substrate ENKYFQS: 0.0595
- area with substrate ENNYFQS: 0.0633
- area with substrate ENPYFQS: 0.0578
- area with substrate ENQYFQS: 0.0582
- area with substrate ENRYFQS: 0.0413
- area with substrate ENSYFQS: 0.0542
- area with substrate ENVYFQS: 0.069
- area with substrate ENWYFQS: 0.0474
- area with substrate ENYYFQS: 0.0454

Variant: MGESLFKGPRDYNPISSSTCHLTNESDGHTTSLYGIGFGPFIITNKHLFRRNNGTLVVQSLHGVFKVKDTTTLQQHLVDGRDMIIIRMPKDFPPFPQKLKFREPQREERICLVTTNFQTKSMSSMVSDTSCTFPSGDGIFWKHWIQTKDGQCGSPLVSTRDGFIVGIHSASNFTNTNNYFTSVPKNFMELLTNQEAQQWVSGWRLNADSVLWGGHKVFMVKPEEPFQPVKEATQL [I19T]
- area with substrate ENDYFQS: 0.0636
- area with substrate ENEYFQS: 0.0533
- area with substrate ENGYFQS: 0.0708
- area with substrate ENHYFQS: 0.0972
- area with substrate ENMYFQS: 0.0863
- area with substrate ENNYFQS: 0.0548
- area with substrate ENPYFQS: 0.0531
- area with substrate ENQYFQS: 0.0572
- area with substrate ENTYFQS: 0.06
- area with substrate ENVYFQS: 0.0736

Source: the supplement of paper PMC12217912
